The values that follow come from the RNAGym collection of RNA variant scans (doi:10.7554/elife.90254).

The source gives no read counts; variants with many changes may rest on few reads.

First the molecules themselves.
B1: LINE1-full (parent)
chain: UACGUAGGUGGUUUUCCCCUGAUAGUGCUAAGGGGGCCUGGAAGUUUGGACUGGGCAGAGCUCAACACAGCGUGGCAAAGUGGCUGUGGCUAGACUGCCUCUCUGGAUUCCUCGUCACUCAGCAGGGCAUCUCUGAGAGAAAUGCC

This data set covers variants of B1. Nature of the data set: self-cleavage, relative activity (ratio to wild type); higher = more cleavage; in vitro, sequencing; the parent is a self-cleaving ribozyme.
For the variant UACGUAGGUGGUUUUCCCCUGAUAGUGCUAAGGGGGCCUGGAAGUUCGGACUGGGCAGAGCUCAACACAGCGUGGCAAAGUGGCUGUGGCUGGACUGCCUCUCUGGACUCCUCGUCACUCAGCAGGGCAUCUCUGAGAGAAAUGCC, the self-cleavage is 0.21. Regarding UACGUAGGUGGUUCUCCCCUGAUAGUGCUAAGGGGGCCUGGAAGUUUGGACUGGGCAGAGCUCAACACAGCGUGGCAAAGUGGCUGUGGCUAGACUGCCUCUCUGGAUUCCUCGUCACUCGGCAGGGCAUCCCUGAGAGAAAUGCC, the self-cleavage stood at 0.98. For UACGUAGGGGGUUUUCCCCUGAUAGUGCUAAGGGGGCCUGGAAGUUUGGACUGGGCAGACCUCAACACAGCGUGGCAAAGUGGCAGUGGCUAGACUGCCUCUCUGGAUUCCUCGUCACUCAGCAGGGCAUCUCUGAGAGAAAUGCC, the self-cleavage was 0.08. For UACGUAGGUGGCUUUCCCCUGAUAGAGCUAAGGGGGCCUGGAAGUUUGGACUGGGCAGAGCUCAACACAGCGUGGCAAAGUGGCCGUGGCUAGACUGCCUCUCUGGAUUCCUCGUCACUCAGCAGGGCAUCUCUGAGAGAAACGCC the value was 0.3; for CACGUAGGUUGUUUUCCCCUGGUAGUGCUAAGGGGGCCUGGAAGUUUGGACUGGGCAGAGCUCAACACAGCGUGGCAAAGUGGCUGUGGCUAGACUGCCUCUCUGGAUUCCUCGUCACUCAGCAGGGCGUCUCUGAGAGAAAUGCC, 0.92. With UACGUAGGUGGUUUUCCCCUGAUAAUGCUAAGGGGGCCUGGAAGUUUGGACUGGGCAGAGCUCAACACAGCGUGGCAAAGUGGCUGUGGCUAGACUGCCUCACUGGAUUCCCCGUCACUCAGCAGGGCAUCUCUGAGAGAAAUGCC, the self-cleavage is 1.65.

On to UACGUAGGUGGUUUACCCCUGACAGUGCUAAGGGGGCCUGGAAGUUUGGACUGGGCAGAGCUCAACACAGCGUGGCAAAGUGGCUGUGGCUAGACUGCCUCUCUGGAUUCCUCGUCACUCAGCAGGGCGUCUCUGAGAGAAAUGCC, for which the self-cleavage was 1.06. Consider UACGUAGGUGGUUUUCCCCUGAUAGUGCUAAGGGGGCCUGGAAGUUUGGACUGGUCGGAGCUCAACACAGCGUGGCAAAGUGGCUGUGGCUAGACUGCCUCUCUGGAUUCCUCGCCACUCAGCAGGGCAUCUCAGAGAGAACUGCC, for which the self-cleavage stood at 0.2. The result for UACGUAGGUGGUUUUCCCCCGAUAGUGCUAAGGGGGCCAGGAAGUUUGGACUGGGCAGAGCUCAACACAGCGUGGCAAAGUGGCUGUGGCUAGACUGCCUCUCUGGAUUCCUCGCCGCUCAGCAGGGCAUCUCUGAGAGAAAUGCC reads 0.77; that for UACGUAGGUGGGUUUCCCCUGAUAGUGCUAAGGGGGCCUGGGAGUUAGGACUGGGCCGAGCUCAACACAGCGUGGCAAAGUGGCUGUGGCUAGACUGCCUCUCUGGAUACCUCGUCACUCAGCAGGGCAUCUCUGAGAGAAAUGCC, 0; that for UACGUAGGAGGUCUUCCCCUGAUAGUGCUAAGGGGGCCUGGAUGUUUGGACUGGGCAGAGCUCAACACAGCGUGGCAAAGUGGCUGUGGCUAGACUGUCUCUCUGGAUUCCUCGUCACUCAGCAGGGCAUCUCUGAGAGAAAUGCC, 0.53.

Turning to UACGUAGGUGGUCUUCCCCUGAUAGUGCUAAGGGGGCCUGGAAGUUUGGACUGGGCAGAGCUCAACACAGCGUGGCAAAGUGGCUGUGGCUAGGCUGCCUCUCUGGACUCCUCGUCACUCAGCAGGGCAUCUCUGAGAGAAAUGCC, the self-cleavage came out at 2.16. For UACGUAGGAGGUUUUCCCCUGAUAGUGCUGAGGGGGCCUGGAAGUUUGGACUGGGCAGAGCUCAACACAGCGUGGCAAAGUGGCUGUGGCUAGACUGCCUCUCUGGAUUCCUCGUCACUCGGCAGGGCAUCUCUGAGAGAAAUGCC the value was 0.66; for UAUGUAGGUGGUUUUCCCCUGAUGGUGCUAAGGGGGCCUGGAAGUUUGGACUGGGCAGAGCUCAACACAGCGUGGCAAAAUGCCUGUGGCUAGACUGCCUCUCUGGAUUCCUCGUCACUCAGCAGGGCAUCACUGAGAGAAAUGCC, 1.16. For UGCGUGGGUGGUUUUCCCCUGAUAGUGCUAAGGGGGCCUGGAAGUUUGGACUGGGCAGAGCACAACACAGCGUGGCAAAGUGGCUGUGGCUAGACUGCCUCUCUGGAUUCCUCGUCACUCAGCAGGGCAUCUCUGAGAGAGAUGCC the value was 0.13; for UACGUAGGUGGUUUUCCCCUGAUAGUGCUAAGGGGGCCUGGAAGCUCGGACUGGGCAGAGCUCAACACAGCUUGGCAAAGUGGCUGUGGCUAGACUGCCUCUCUGGAUUCCUCGACACUCAGCAGGGCAUCUCUGAGAGAAAUGCC, 1.05; for UACGUAGGUGGUUUUCCCCUGAUAGUGCUAAGGGGGCCUGGUAGUCUGGACUGGGCAGAGCUCAACACAGCGUGGCAAAGUGGCUGUGGCUAGACUGCCUCUCUGGAUUCCUCGCCACUCAGCAGGGCAUCUCUGAGAGAAAUGCC, 2.07. Regarding UACGUAGGUGGUUUUCCCCUGAUAGUGCUAAGGGGGCCUGGAAGUUUGGACUGGGCAGAGCCCAACGCAGCGUGGCAAAGUGGCUGUGGCUAGACUGCCUCUCUGGAUUCCUCGUCACUCUGCAGGGCACCUCUGAGAGAAAUGCC, the self-cleavage was 0.

As for UACGUAGGUGGUUUUCCCCUGAUAGUGCUAAGGGGGCCUGGAAGUUUGGACUGGGCAGAGCUCAACGCAGCGUGGCAAAGUGGCUGUGGCUAGUCUGCCUCUCUGGAUUACUCGUCACUCAGCAGGGCAUCUCUGAGAGAAAUGCC, the self-cleavage turned out to be 0.18.
